PubChem BioAssay (NCI)
Several values for one entry are separate records, joined by “and”; a condition that tells them apart may be missing. Identical values can stand only once.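 96-well plates; 48 h exposure; 5 concentrations. Endpoints by linear interpolation between flanking doses. Not reached: highest tested concentration assigned. GI50 = concentration required for 50% inhibition of growth. TGI marks complete inhibition of growth.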

test system: NCI-H322M lung; experiment: inhibition of tumour cell growth, NCI panel, 48 h

| Structure (SMILES) | TGI | GI50 [µM] |
| --- | --- | --- |
| N=c1ncn(C/C=C/c2ccccc2)c2nc[nH]c12 | > 100 µM | – |
| O=C1/C=C/[C@@H](O)[C@@H]2C[C@@H](O)C[C@H]2/C=C/CCC[C@H](CCO)O1 | > 100 µM | 0.319 |
| CC1=CC(C)=N/C(=N/S(=O)(=O)c2cc(C)c(Cl)cc2SCc2ccccc2)NN1 | > 100 µM | > 100 |
| Clc1ccc2c(NC3CCC(N4CCCCC4)CC3)ccnc2c1 (stereo not drawn) | 65.6 µM | – |
| O=C(CC12C3C4C1C1C2C3C41CC(=O)NO)NO (stereo not drawn) | > 100 µM | – |
| C=CCc1c(O)c(C(=O)/C=C/c2ccc(Cl)cc2)c(OC)c2ccoc12 | 17.7 µM | 4.88 |
| O=C1CCCC1CC(CN1CCOCC1)Sc1nnnn1-c1ccccc1 (stereo not drawn) | > 100 µM | – |
| Cc1ccc(/C=C2\CCCCC2=O)cc1 | > 100 µM | – |
| NC(=O)NNC/C(Cl)=C(\Cl)C(=O)O | > 100 µM | – |
| CCN(CC)/N=C\c1c2ccccc2cc2ccccc12 | > 100 µM | – |
| Clc1cnc(Nc2ccc(OCCN3CCCC3)cc2)nc1NCc1ccco1 | 9.7 µM | 2.61 |
| c1ccc2c(c1)nnn2C1CCCCO1 (stereo not drawn) | > 100 µM | – |
| Nc1nc2cc(Cl)ccc2n1N | > 100 µM | – |
| C[Si](C)(C)OC1(C#N)c2ccccc2CCCC12CCCC2 (stereo not drawn) | > 100 µM | – |
| CCCCCCCCN(CCCCCCCC)CC(O)c1cc(-c2ccccc2)nc2ccc(OC)cc12 (stereo not drawn) | > 100 µM | > 100 |
| O=S(=O)(O)c1cc(S(=O)(=O)O)c2cc(N=Nc3ccc(N=Nc4ccc(/C=C/c5ccc(N=[N+]([O-])c6ccc(/C=C/c7ccc(N=Nc8ccc(N=Nc9ccc%10cc(S(=O)(=O)O)cc(S(=O)(=O)O)c%10c9)cc8)cc7S(=O)(=O)O)c(S(=O)(=O)O)c6)cc5S(=O)(=O)O)c(S(=O)(=O)O)c4)cc3)ccc2c1 | > 100 µM | – |
| CCO/C=C\C12CCCC1NC(c1ccccc1)(c1ccccc1)O2 (stereo not drawn) | > 100 µM | – |
| Cc1cc(-c2ccccc2)nc(Nc2cc3ccccc3[nH]2)n1 | > 100 µM | – |
| CCCCCCCCCC1CC(=O)OC2=C1C(=O)CCC2 (stereo not drawn) | > 100 µM | – |
| CCCCCCCCCCCCCCNCC(OC)OC | 30 µM | – |

| Structure (SMILES) | TGI | GI50 [µM] |
| --- | --- | --- |
| O=C1CCC2(O)c3ccccc3C2Cc2ccccc21 (stereo not drawn) | > 100 µM | – |
| COc1cc(C2c3cc4c(cc3[C@@H](NC3CCN(Cc5ccccc5)CC3)C3COC(=O)[C@H]23)OCO4)cc(OC)c1O (stereo partly drawn) | 10.8 µM and 4.34 µM | – |
| O=c1c(O)c(-c2ccccc2)oc2c(CP(=O)(O)O)cccc12 | > 100 µM | – |
| COc1nn(C)cc1Nc1nccc(-c2c[nH]c3c(NC(=O)[C@@H](C)N4CCN(C)CC4)cccc23)n1 | > 100 µM | > 100 |
| O=C(CCCCCNC(=O)c1ccc(Cl)cc1)NO | 68.5 µM | – |
| COc1c(C(N)=O)cc(-c2ccc(Cl)cc2)cc1-c1ccc(S(N)(=O)=O)cc1 | > 25 µM | 14.5 |
| COP(=O)(CP(=O)(OC)OCCC(C)CCC=C(C)C)OC (stereo not drawn) | > 100 µM | – |
| COc1ccccc1-c1csc(CCC(N)C(=O)O)n1 (stereo not drawn) | > 100 µM | – |
| CCC(O)CCCCCCCCCCCCCCC(=O)O (stereo not drawn) | > 100 µM | – |
| CC(C)(C)NCC(O)c1ccccc1Cl (stereo not drawn) | > 100 µM | > 100 |
| CSc1nnnc2ccccc12 | > 100 µM | – |
| COc1cccc(N2CC(O)=C(c3nc4ccccc4s3)C2=N)c1 | > 100 µM | 5.42 |
| [N-]=[N+]=Nc1cc(=O)[nH]c2ccccc12 | > 100 µM | – |
| COC(=O)C1=C(C)NC(=S)NC1c1ccc(N(CCCl)CCCl)cc1Cl (stereo not drawn) | > 100 µM | – |
| COC(=O)/C=C1\C(CO[Si](C)(C)C(C)(C)C)OC(n2cc(C)c(=O)n(C)c2=O)C1O[Si](C)(C)C(C)(C)C (stereo not drawn) | > 100 µM | – |
| Cc1cc(C)[n+]2c(c1)C=CC2 | > 100 µM | – |
| COC(=O)[C@]1(C)CCC[C@@]2(C)C3=C(CC[C@H]12)C[C@@H](CC(OC(C)=O)OC(C)=O)[C@@H](C)C3 | 38.6 µM | 16 |
| N=C(N)SCc1nc(-c2ccc(Cl)cc2)no1 | > 100 µM | – |
| CN(C)C(=O)N1N[C@H](c2ccccc2)[C@@H]1c1ccccc1 | > 100 µM | – |
| O=C(O)c1cc(NCc2cc(O)ccc2O)ccc1O | > 100 µM | – |

| Structure (SMILES) | TGI | GI50 [µM] |
| --- | --- | --- |
| O=C(Nc1nc2c(C(F)(F)F)cccc2s1)c1cc(Cl)ccc1O | 14.2 µM | 0.326 |
| CC(C)N1CC2CC(CN(C(=O)c3ccc(Cl)cc3)C2)C1 | > 100 µM | – |
| CC1(C)CCCCCC(O)C(O)CCC(C)(C)C1=O (stereo not drawn) | > 100 µM | – |
| NS(=O)(=O)c1ccc(-c2ccc([As](=O)(O)O)cc2)cc1 | > 100 µM | – |
| CCOC(=O)Cc1[nH]c(C(=O)c2ccccc2)cc1C(=O)c1ccccc1 | > 100 µM | – |
| CCOC(=O)N1CCC(N=C2CSc3nnc(-c4cc(C(F)(F)F)cc(C(F)(F)F)c4)n3N2)CC1 | 12 µM | 2.95 |
| CCOC(=O)c1nc2ccccc2nc1Nc1ccc(C(=O)OC)s1 | > 100 µM | – |
| Nc1ccc(C#Cc2ccccc2C#CCCCCO)cc1 | 35.5 µM | 17.7 |
| CCOP(=O)(OCC)C(Nc1ccc(Cl)cc1)c1ccc(F)cc1 (stereo not drawn) | > 100 µM | – |
| COc1ccc2c3ccnc(C(F)(F)F)c3n(CCCCN)c2c1 | 19.4 µM | 6.17 |
| COc1cc(OC)c(/C=C/C(=O)c2c(OC)cc(OC)cc2OC)c(OC)c1 | > 100 µM | 1.99 |
| COC1(OC)CC(CO)(COc2cc(Cl)nc(N)n2)C1 | > 100 µM | – |
| C[C@]12CCC(=O)C=C1C[C@@H](O)[C@@H]1[C@@H]2CC[C@@]2(C)[C@H]1CC[C@]2(C)O | > 100 µM | – |
| O=C(Nc1ccc(Cl)c(Cl)c1)c1ccc(NC2=C(Cl)C(=O)N(Cc3ccccc3)C2=O)cc1 | 71.2 µM | 26 |
| Cc1[nH]nc(C(F)(F)F)c1Cc1sc2c(c1C(=O)N1C[C@](C)(O)CO1)c(=O)n(C)c(=O)n2C(C)C | > 100 µM | > 100 |
| COC(=O)C1=C(C)NC(C)=C(C(=O)OC)C1c1cccc(/[N+]([O-])=C/c2ccccc2)c1 | > 100 µM | – |
| CCN1CCN(C(=O)[C@]23CC[C@@H](C)[C@H](C)[C@@H]2C2=CC[C@@H]4[C@@]5(C)CCC(=O)C(C)(C)[C@@H]5CC[C@@]4(C)[C@]2(C)CC3)CC1 | 5.43 µM | 1.57 |
| COc1cc2ncnc(Oc3ccc(NC(=O)Nc4ccc(CN5CCOCC5)c(C(F)(F)F)c4)c4ccccc34)c2cc1OC | 14.3 µM | 0.643 |
| Cc1ccc(/C=c2\c(=O)[nH]c3nc4ccccc4c(=O)n23)cc1 | > 100 µM | – |
